“Also recorded” adds a separate entry of the source.
How the values were obtained:
CCR7 = experiment: Chemotaxis assay (migration) of CLL cells towards CCL19 or CCL21 in Transwell chambers; assay type: cell-based, human
Method: PBMCs were isolated by centrifugation on Biocoll Separating Solution density gradient centrifugation (Merck Millipore). PBMC were washed twice with saline solution (Fresenius) and centrifugated at 1200 for 10 minutes. Cells were suspended in RPMI 1640 media (GIBCO) supplemented with 0.1% bovine serum albumin (BSA) at a concentration of 5×10^6 cells/ml. […] Chemotaxis was performed in Transwell chambers (6.5-mm diameter, 10-μm thickens, 5-μm diameter pore size, Costar). Only samples from patients with >90% of tumour cells were included. A total of 5×10^5 cells suspended in RPMI-1640, 0.1% BSA were loaded in the upper chamber and chemokines CCL19 or CCL21 (1 μg/ml, Peprotech) were added to the lower well. After 4 hours at 37° C. 5% CO2, cells in the lower chamber were collected, and stained with anti-CD3-PE (BD Biosciences) and anti-CD5-APC (BD Biosciencies). The migrated cells were counted for 60 seconds in a BD FACSCanto™ II flow cytometer. The percentage of migrated cells (% of input) was calculated according to the following formula: 100×(number of cells in the lower chamber/number of cells loaded in the upper chamber). Once the % of input was calculated, the % of inhibition was estimated by means the following formula: % of inhibition=[(% input without mAb−% input with mAb)×100]/[% input without mAb]. In addition, results are shown as the % of input relative to the maximum effect mediated by each chemokines (CK) which was calculated according to: %input rel. to CK=100×(% input/% input with CK).

CLL cells = experiment: Antibody-dependent cell-mediated cytotoxicity (ADCC) against CLL cells; assay type: cell-based, human; details: E:T 10:1
Method: ADCC assays were performed as described in SR-HPM-1026. Briefly: target tumour cells were incubated with media alone (RPMI+10% FBS) or in the presence of IC, rituximab, alemtuzumab, or CAP-100 antibodies, at different final concentrations, at 37° C. for 30 min. Unbound antibody was washed off (1800 rpm, 2 minutes/twice) and the cells plated at 10^5 cells/well in p96 U-bottom plates. Human PBMCs from healthy donors were obtained by ficoll density gradient centrifugation. Effector cells were labelled with calcein-UV Cell Tracker (Invitrogen) according to the manufacturer's protocol, and stimulated with recombinant human IL-2 (500 UI/ml, StemCell Technologies). Different effector:target (E:T) ratios were used [10:1 for dose-response assays, and (5:1, 25:1, 50:1) for E:T assays]. After 6 hours, cells were stained with 7AAD, CD3-PE and CD5-APC and analysed by flow cytometry. The percentage of specific lysis in Cell-TrackerCD5^+CD3^− CLL cells was determined by incorporation of 7-AAD (BD Pharmingen) and calculated according to the following formula: % Specific Lysis=100×(ER−SR)/(MR−SR). ER, SR, and MR represent experimental, spontaneous and maximum cell death.

B1: CAP-100: humanized anti-CCR7 antibody: heavy chain variable domain SEQ ID NO: 4, light chain variable domain SEQ ID NO: 5, heavy chain constant region SEQ ID NO: 10 (antibody)
VH: EVQLLESGGGFVKPGGSLKLSCVVSGLTFRDFAMSWVRQTPEKRLVWVATISSGGFYTYYPDSVKGRFTISRDNVRNILYLQMSSLRSEDTAVYYCVRRAYRYDGTGDYSALDYWGTGTTVTVSS
VL: DIQMTQSPSSLSASVGDRVTITCRASQDIGPSLNWYQQKPGKAPKRLIYATSNLDSGVPSRFSGSGSGTDFTLTISSLQPEDFATYYCLQFASSPLTFGQGTKVEIK
chain: [human IgG1 constant region with changes omitted]
modifications: light chain constant region not cited; Humanized VH1 domain; Humanized VK1 domain; synthetic heavy chain constant region of the human allotype G1m (17,1) with a E333A substitution
CCR7; CLL cells from one patient on venetoclax and one ibrutinib patient, 0.01-100 μg/ml
  inhibitory (neutralizing) activity on CCR7-mediated migration: neutralizes; also recorded: clear dose-response inhibitory activity
CCR7; CLL cells from venetoclax or ibrutinib patient, 10 or 100 μg/ml of antibody
  migration indices towards CCL19 or CCL21: reached basal levels
CCR7; naïve CLL cells (n=5), ibrutinib 0.1 μM, CAP-100 10 μg/ml
  effect of single agent on migration induced by CCR7 ligands: reduction of migration to basal levels
CLL cells; CLL cells from patients on ibrutinib, zanabrutinib, venetoclax or ibrutinib R/R, PBMC effectors
  ADCC activity (specific lysis): potent ADCC activity
CLL cells; same four groups of patients
  ADCC activity compared with rituximab: outperformed rituximab
